The source of these data is PMC5297747, “Pnserpin: A Novel Serine Protease Inhibitor from Extremophile Pyrobaculum neutrophilum” (International Journal of Molecular Sciences, 2017).

For the assay, the target named is T1, Pnserpin (Pyrobaculum neutrophilum, UniProt B1YBN4 1-393).
T1 construct: full length gene synthesized and cloned into pET-28a(+); Purified protein ran as a single band of 44 kDa; also called serpin homologue of Pyrobaculum neutrophilum; source: E. coli BL21-CodonPlus (DE3)-RIL, purified (nickel-chelating chromatography)
T1 sequence (looked up): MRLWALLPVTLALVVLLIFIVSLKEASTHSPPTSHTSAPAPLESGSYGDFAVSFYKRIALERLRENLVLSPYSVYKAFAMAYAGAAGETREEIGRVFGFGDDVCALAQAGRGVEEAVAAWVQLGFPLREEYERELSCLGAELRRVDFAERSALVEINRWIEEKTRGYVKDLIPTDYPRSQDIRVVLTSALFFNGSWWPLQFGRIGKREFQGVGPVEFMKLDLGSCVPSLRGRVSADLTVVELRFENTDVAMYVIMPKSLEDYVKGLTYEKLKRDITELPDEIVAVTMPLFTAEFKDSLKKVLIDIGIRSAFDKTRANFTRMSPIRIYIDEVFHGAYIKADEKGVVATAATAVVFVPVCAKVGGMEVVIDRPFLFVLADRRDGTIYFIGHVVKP
Description: progress curve of protease inhibition; 40 °C; buffer B (100 mM HEPES-NaOH pH 7.5, 200 mM NaCl, 10 mM CaCl2, 0.01% triton X-100, 0.1% glycerol); 1 mM Suc-AAPF-pNA or MeO-SucAAPV-pNA as substrate; various concentrations of Pnserpin; absorption at 410 nm; kass = kunc × (1 + [S]/KM). The settings on record: both partners purified.

B1: porcine pancreatic elastase (enzyme, UniProt P00772 27-266, looked up)
chain: VVGGTEAQRNSWPSQISLQYRSGSSWAHTCGGTLIRQNWVMTAAHCVDRELTFRVVVGEHNLNQNDGTEQYVGVQKIVVHPYWNTDDVAAGYDIALLRLAQSVTLNSYVQLGVLPRAGTILANNSPCYITGWGLTRTNGQLAQTLQQAYLPTVDYAICSSSSYWGSTVKNSMVCAGGDGVRSGCQGDSGGPLHCLVNGQYAVHGVTSFVSRLGCNVTRKPTVFTRVSAYISWINNVIASN
notes: porcine pancreatic elastase; printed molecular weight 24 kD
B1: the on-rate (kon) was 22700 M⁻¹ s⁻¹.

The term kon denotes the rate constant with which the complex forms.
